# Results from PubChem BioAssay AID624418 (National Center for Advancing Translational Sciences (NCATS), 2012).
# About 530 (0.13%) of roughly 410,000 compounds were called active. This list was built around the results that the source calls inconclusive (neither active nor inactive); the mix of calls is not that of the screen. Calls follow the shape of the dose curve; as a rule, active = well fitted inhibition curve with a large enough effect; inconclusive = small, poorly fitted or top-dose-only effect, or another doubt; inactive = no such curve, though single readings can be large or run the other way. Potencies of inconclusive entries are doubtful fits and often do not repeat.
# Assay: qHTS of GLP-1 Receptor Inverse Agonists: Cytotox Screen
# Conditions: HEK293 cAMP-luciferase reporter cells, luminescence, 24 h; activity change, negative = inhibition: at 38.3 µM (top of the series) unless noted
# How it was run: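 To flag toxic compounds, the library was rerun on cells for 24 hr at 37 deg C and 5% CO2. Viability-linked luminescence was captured 12 min after adding luciferase detection reagent.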
# % is scaled to controls: 0 for no effect and ±100 for the full control effect; potency is read from the fitted curve at half-maximal effect.
SMILES,Potency,"activity change, negative = inhibition"
CCCCCc1cc(=O)oc2c(C(CCN(CC)CC)c3cc(OC)c(OC)c(OC)c3)c(OC)cc(OC)c12 (configuration not stated),"inconclusive: 14.1 µM [inhibitor, single point]",–
Cc1ccc(NC(=S)NCc2ccc3c(c2)OCO3)c(C)c1,"inconclusive: 31.6 µM [inhibitor, single point]",–
CCN1CCN(c2cc(C)c3cc(NC(=O)c4cc(OC)c(OC)c(OC)c4)ccc3n2)CC1,"inconclusive: 12.6 µM [inhibitor, single point]",–
Cc1cc(/C=N/NC(N)=S)c(C)n1-c1cccc(Cl)c1,"inconclusive: 5.01 µM [inhibitor, partial curve, poor fit]",–
NC(Cc1ccc(C(F)(F)F)cc1)c1csc(NC(=O)NCCc2ccccc2)n1 (configuration not stated),"inconclusive: 28.2 µM [inhibitor, single point]",–
Cc1ccc(C)c(NC(=O)N2CCc3ccccc3C2)c1,–,inactive: -29.1%
C/C(=N\NC(=S)NC1CCCCC1)c1cccs1,"inconclusive: 4.47 µM [inhibitor, full curve, poor fit]",–
O=C(CSCc1ccc(Cl)cc1)Nc1cc([N+](=O)[O-])ccc1O,"inconclusive: 17.8 µM [inhibitor, single point]",–
O=C(NCCC1CCCCN1S(=O)(=O)c1ccccc1)C(=O)NCc1ccccn1 (configuration not stated),–,inactive: 12.4%
CC(=NNC(=S)N1CCN(C2CCCCCC2)CC1)c1ccccn1,active: 0.316 µM,–
CCOc1ccccc1N(C)C(=O)c1cc(S(=O)(=O)NCc2ccc(C)cc2)ccc1F,–,inactive: -21%
CCC(=O)C1=C(c2cccc([N+](=O)[O-])c2)N(C(=O)CC)n2c(nnc2C2CCCCC2)S1,–,inactive: 3.32%
CCOc1c2ccc(C(=O)NCc3ccc(OC(F)(F)F)cc3)cc2nn1CC,–,inactive: -19.1%
CCCNC(=O)COC(=O)c1ccccc1C(=O)c1ccc(Cl)c([N+](=O)[O-])c1,"inconclusive: 8.91 µM [inhibitor, partial curve]",–
C#Cc1ccccc1OCCCN1CCC(C(O)(c2ccccc2)c2ccccc2)CC1,"inconclusive: 31.6 µM [inhibitor, single point]",–
COCCNc1oc(-c2ccc(Cl)cc2)nc1C#N,–,inactive: 11.9%
Cc1ccc(OCCCCN2CCc3ccccc3C2)c(C)c1,"inconclusive: 11.2 µM [inhibitor, single point]",–
OC[C@@H]1[C@@H](c2ccccc2)C(c2ccccc2)=NN1c1ccccc1,–,inactive: 140%
COc1ccc(CCN2C(=O)c3[nH]nc(-c4ccccc4O)c3C2c2ccc(C)cc2)cc1OC (configuration not stated),"inconclusive: 8.91 µM [inhibitor, partial curve, poor fit]",–
Cc1[nH]c(-c2ccc(F)cc2)cc1C(=O)N1CCN(c2ccccc2F)CC1,–,inactive: 1.44%
COC(=O)c1cc2oc(C)cc2n1CC(=O)Nc1ccc(OC)c(OC)c1,–,inactive: -3.86%
CCCC1CCc2c(sc(NC(=O)c3cccs3)c2C(N)=O)C1 (configuration not stated),–,inactive: 4.24%
COc1ccc(NC(=S)Nc2ccccn2)cc1,"inconclusive: 10 µM [inhibitor, single point]",–

SMILES,Potency,"activity change, negative = inhibition"
Cc1ccc(CNC(=O)C2CC(c3ccccc3C(F)(F)F)=NO2)o1 (configuration not stated),"inconclusive: 14.1 µM [inhibitor, single point]",–
O=C1CCCc2ccccc2N1Cc1c(Cl)cccc1Cl,–,inactive: 9.07%
C#CCSc1nnc(-c2ccc(OC)cc2)o1,"inconclusive: 20 µM [inhibitor, partial curve, poor fit]",–
Cc1ccc2cccc(NC(=S)NC(=O)c3ccccc3)c2n1,"inconclusive: 7.94 µM [inhibitor, partial curve, poor fit]",–
COc1ccc(CCNc2oc(COc3ccc(F)cc3)nc2C#N)cc1,–,inactive: -12.1%
COC1CCN(Cc2cn(Cc3ccccc3)nc2-c2cc3ccccc3o2)CC1,"inconclusive: 12.6 µM [inhibitor, single point]",–
CC(C)CCn1c(=O)c2ccccc2n2c(=S)[nH]nc12,"inconclusive: 28.2 µM [inhibitor, single point]",–
COC(=O)c1ccccc1NC(=O)c1sc2nc(C)cc(C)c2c1NC(=O)c1ccccc1Cl,–,inactive: 2.05%
C=C(C)Cn1c(Sc2nnc(C)s2)nc2c1c(=O)[nH]c(=O)n2C,"inconclusive: 2.51 µM [inhibitor, full curve]",–
Cc1ccc(S(=O)(=O)N2CCCCC2)cc1NC(=O)Cn1ncc(Cl)c(Cl)c1=O,"inconclusive: 7.94 µM [inhibitor, partial curve, poor fit]",–
COc1cc(-c2nc(-c3ccc4c(c3)-c3ccccc3S4(=O)=O)c(-c3ccccc3)[nH]2)cc(OC)c1OC,–,inactive: 142%
CCN(CC)CCN(C(=O)C1CCCCC1)c1nc2cc3c(cc2s1)OCO3,"inconclusive: 14.1 µM [inhibitor, single point]",–
CCOc1ccc(CNC(=S)N/N=C/c2ccc(OC)c(OC)c2)cc1,"inconclusive: 22.4 µM [inhibitor, single point]",–
CCN(CC)CCC(c1ccc2c(c1)OCO2)c1c(OC)cc(OC)c2c(-c3ccccc3)cc(=O)oc12 (configuration not stated),"inconclusive: 1.12 µM [inhibitor, full curve, poor fit]",–
CCCCCC(=O)NC(=S)NC1C2CC3CC(C2)CC1C3 (configuration not stated),"inconclusive: 0.501 µM [inhibitor, full curve, poor fit]",–
O=C(COc1ccccc1)NCC(=O)N/N=C/c1cc(Br)ccc1OCc1ccccc1,"inconclusive: 14.1 µM [inhibitor, single point]",–
COc1ccc(N2C(=O)N3[C@H](c4cccc(C)c4)[C@@H]4C(=O)N(Cc5ccccc5)C(=O)[C@@H]4[C@]3(Cc3ccccc3)C2=O)cc1,–,inactive: 1.97%
Cc1cccc(C(=O)O/N=C(\N)Cc2cccc3ccccc23)c1,"inconclusive: 28.2 µM [inhibitor, partial curve, poor fit]",–
Cc1ccc(NC(=S)NC(=O)c2ccc(F)cc2)cc1S(=O)(=O)Nc1cccc(Cl)c1,"inconclusive: 5.62 µM [inhibitor, partial curve]",–
CC(NC(=O)Nc1nnc(C(F)(F)F)s1)(C(F)(F)F)C(F)(F)F,"inconclusive: 8.91 µM [inhibitor, partial curve, poor fit]",–
Cc1ccc(N=N/C(=C\O)C(=O)c2ccncc2)cc1,"inconclusive: 10 µM [inhibitor, single point]",–
CCc1c(C2(O)CCCCC2)[nH]c2cc(C(F)(F)F)ccc12,"inconclusive: 12.6 µM [inhibitor, single point]",–
CCCCC1=CC2=CC(=O)C(C)(OC(=O)C3CCCC3)C(=O)C2=CO1 (configuration not stated),"inconclusive: 3.98 µM [inhibitor, full curve, poor fit]",–

SMILES,Potency,"activity change, negative = inhibition"
CC1CCCC(C)N1c1nnc(N)s1 (configuration not stated),–,inactive: 1.31%
CCN(CC)c1ccc(NC(=O)c2ccc(Cl)nc2)cc1,"inconclusive: 0.794 µM [inhibitor, partial curve, poor fit]",–
CCOc1ccc(CN2CCC(C(=O)Nc3cccc(-c4ccn[nH]4)c3)CC2)cc1Cl,"inconclusive: 22.4 µM [inhibitor, single point]",–
Cc1ccc(C(=O)O/N=C(\N)c2ccccn2)c(Cl)c1,"inconclusive: 31.6 µM [inhibitor, partial curve, poor fit]",–
O=[N+]([O-])c1c(Nc2cccc(O)c2)cc(Cl)c2nonc12,"inconclusive: 6.31 µM [inhibitor, partial curve, poor fit]",–
COc1ccc(C(=O)NCCNc2ccc([N+](=O)[O-])cc2)cc1,"inconclusive: 11.2 µM [inhibitor, partial curve, poor fit]",–
C=C1CC2(OC1=O)c1ccccc1CCc1ccccc12,active: 10 µM,–
N#C/C(=C\c1ccc(N2CCOCC2)c([N+](=O)[O-])c1)c1nc2ccccc2[nH]1,"inconclusive: 12.6 µM [inhibitor, single point]",–
CCC(C)NC(=O)c1ccc(COc2ccccc2Cl)cc1 (configuration not stated),"inconclusive: 11.2 µM [inhibitor, single point]",–
CC1CCCC(C)N1CCCNC(=O)c1nn(C)c2c1CSc1ccccc1-2 (configuration not stated),"inconclusive: 15.8 µM [inhibitor, single point]",–
CC1=NN(C(=O)c2ccccc2C)C(O)(c2ccc(Cl)cc2)C1 (configuration not stated),–,inactive: -4.87%
O=C(O)CCc1ccc(-c2ccccc2)n1-c1cccc(C(=O)O)c1,–,inactive: 2.12%
CC(O)CNc1nc(N)[nH]c(=O)c1N=Nc1ccccc1 (configuration not stated),"inconclusive: 22.4 µM [inhibitor, single point]",–
CC1CCCCN1C(=O)c1cc2ccccc2cc1O (configuration not stated),–,inactive: -13.1%
CCOc1cc(C(=O)Nc2ccc3nc(N4CCN(C)CC4)cc(C)c3c2)cc(OCC)c1OCC,"inconclusive: 22.4 µM [inhibitor, single point]",–
CCc1cccc(NC(=O)CN(C)S(=O)(=O)c2ccc3c(c2)n(C)c(=O)c(=O)n3C)c1,–,inactive: -3.58%
Oc1ccc(C[C@H]2CN([C@@H](Cc3ccc(O)cc3)CN3CCC[C@@H]3CN3C(=S)NC[C@@H]3Cc3ccccc3)C(=S)N2CC2CCCCCC2)cc1,"inconclusive: 11.2 µM [inhibitor, single point]",–
CN(C)CCNC(=O)c1ccc2c(=O)n(Cc3ccc(Cl)cc3)c(=S)[nH]c2c1,"inconclusive: 11.2 µM [inhibitor, single point]",–
Cc1c(NC(=O)COC(=O)c2cc3c4ccccc4n(C)c3s2)c(=O)n(-c2ccccc2)n1C,–,inactive: 15.9%
O=C(NC1CCCCC1)C(c1ccncc1)N(C(=O)Cn1nnc(-c2cccs2)n1)C1CCCC1 (configuration not stated),"inconclusive: 28.2 µM [inhibitor, single point]",–
CCN(CC)CCOc1ccc(/C(=C(/Cl)c2ccccc2)c2ccccc2)cc1,"inconclusive: 28.2 µM [inhibitor, single point]",–
